The source of these data is ChEMBL document CHEMBL4888484, “Replenishing the malaria drug discovery pipeline: Screening and hit evaluation of the MMV Hit Generation Library 1 (HGL1) against asexual blood stage Plasmodium falciparum ,using a nano luciferase reporter read-out” (2022).

The whole screen tested about 150,000 compounds, of which about 540 (0.36%) showed an effect of 50% or more. Some of the results follow.

For this test, the system named is Plasmodium falciparum. As to the kind of experiment: Primary screen in NF54 nanoGlo assay, in single point, at 2uM, 72h; a lower Z score goes with more inhibition. The class given is functional, Erythrocyte. Conditions: timepoint 72 hour.
On to `COCC(=O)NC1CCN(Cc2nc(-c3cccs3)no2)CC1`, for which the “% Inhibition” value is reported as 0% and the Z score is 0.07.
The matching figures for `Cc1nc(-c2ccc3c(c2)n(CC(=O)Nc2ccccc2C)c(=O)n3C(C)C)no1`: -9% and 1.08.
For the compound `CCc1cnccc1C(=O)Nc1cccc(-n2cnnc2)c1`, the “% Inhibition” value is listed as -9% and the Z score amounted to 1.65.
For the compound `Cc1cccc(NC(=O)Cn2nc(C(=O)N3CCN(C)CC3)cc2C)c1C`, the “% Inhibition” value was found to be 4% and the Z score is given as -0.78.
The matching figures for `CCn1c(C)nc2cc(NS(=O)(=O)c3ccccc3)cc(C(=O)NCc3cccc(F)c3F)c21`: -8% and 1.46.
The matching figures for `Cc1cc(=O)c(C(=O)N2CCC[C@H](C#N)C2)cn1C`: 4% and -0.6.
The matching figures for `COCCN1CCN(c2ncc(F)cn2)CC1=O`: 3% and -0.42.
Take `Cc1cc(C)nc(CCNC(=O)c2nc3ncccn3n2)n1`: the “% Inhibition” value is -16% and the Z score was 2.09.
For `CN(C[C@H]1CCOC1)S(=O)(=O)Cc1cccc(Cl)c1`, in that order: -2% and 0.31.
For `Cc1ccc(N2CCCC2)c(C(=O)N(C)CCn2cccn2)c1`, in that order: -4% and 0.53.
For `O=C(Cn1nnn(-c2ccc(NC(=O)c3cc(Cl)ccc3Cl)cc2)c1=O)NC1CC1`, the “% Inhibition” value is listed as -8% and the Z score amounted to 1.54.
The matching figures for `COCCn1ccnc1CN(C)C[C@H]1CCOC1`: -11% and 2.13.
The matching figures for `C[C@@H](c1cccnc1)N(C)Cc1nc2c(s1)CCC2`: -18% and 3.45.
As for `COc1ccc(S(=O)(=O)N(C)c2ccc3sc(C(=O)N4CCOCC4)cc3c2)cc1`, the “% Inhibition” value is -8% and the Z score came out at 0.99.
Take `O=C(O)[C@H]1CCCN1C(=O)CCCc1ccc(F)c(F)c1`: the “% Inhibition” value is reported as -3% and the Z score stood at 0.35.
The matching figures for `Cn1cc(C(=O)N2CC=C(c3c[nH]c4ccccc34)CC2)cn1`: -6% and 0.88.
The matching figures for `CCN1CCCN(C(=O)c2cc(O)nc3c(F)cc(C)cc23)CC1`: -3% and 0.45.
The matching figures for `CCC(C)C(NC(=O)N1CCCN(CC)C(=O)C1)C(F)(F)F` (stereo not drawn): 5% and -0.68.
For `O=C(c1cn(C(c2ccccc2)c2ccccc2)nn1)N(Cc1ccccc1)CC1CC1`, the “% Inhibition” value is recorded as -1% and the Z score came out at 0.16.
The matching figures for `N#Cc1cc(CN(Cc2cccnc2)Cc2ccco2)ccc1F`: 3% and -0.5.
For `CCn1cc(Br)c(=O)c(NC(=O)c2cn(C(C)(C)C)nn2)c1`, in that order: 4% and -0.5.
For `CCc1nsc(N[C@H]2CCCCCN(C(=O)c3nccnc3N)C2)n1`, in that order: -3% and 0.41.
Consider `COc1ccc(OC)c(-c2ccc3c(c2)CN(C)C3=O)c1`, for which the “% Inhibition” value was -5% and the Z score was found to be 0.83.
As to `Cc1nc(CNCc2c[nH]nc2-c2cccnc2)cs1`, the “% Inhibition” value is reported as -14% and the Z score was 1.89.
For `COc1ccc(CCNC(=O)c2ccc[n+]([O-])c2)cc1OC`, in that order: 6% and -0.78.
For the compound `CN(C)S(=O)(=O)c1ccc(-c2noc(C3(C#N)CCCC3)n2)cc1`, the “% Inhibition” value is given as -9% and the Z score is recorded as 0.78.
For `CO[C@H]1CCCOC12CCN(C(=O)c1ccc(-n3nc(C)cc3C)cc1)CC2`, in that order: -12% and 1.85.
The matching figures for `CC(C)c1noc(Cc2ccc(NC(=O)CC3CC3)cc2)n1`: -6% and 0.69.
In the case of `CN1C(=O)C2(CCN(C(=O)CCC3CCCC3)CC2)c2ccccc21`, the “% Inhibition” value is -7% and the Z score is 1.09.
For `C[C@]1(O)CCN(c2nc3ccccc3s2)C[C@H]1Cc1ccccc1`, the “% Inhibition” value is -16% and the Z score amounted to 1.55.
For `CC(C)c1nc(-c2noc(CCn3cnccc3=O)n2)cs1`, in that order: 2% and -0.32.
Turning to `CS(=O)(=O)Cc1ccc(-c2ccc(OCc3ccccc3)nc2)nc1`, the “% Inhibition” value turned out to be 3% and the Z score is on record as -0.45.
Regarding `CC1(C)CCC[C@H](CS(=O)(=O)NCCc2cnoc2)O1`, the “% Inhibition” value is -5% and the Z score is recorded as 0.79.
For `Cc1cc2ncc3c(n2n1)CCN(C(=O)c1cc2ccccc2[nH]1)C3`, in that order: 3% and -0.51.
For `COc1cccc([C@H](CNC(=O)C2CCN(S(=O)(=O)c3ccc4c(c3)CCC4)CC2)N(C)C)c1`, in that order: -12% and 1.08.
For `Cc1cccc(N2CCN(C(=O)C(C)(C)c3c[nH]cn3)CC2)c1C`, in that order: -9% and 1.58.
As for `Cc1nn(-c2ccccc2)c(Oc2ccccc2)c1CN(CC(C)C)C(=O)c1cccc(F)c1`, the “% Inhibition” value is reported as -11% and the Z score stood at 1.04.
For `O=C(C1CC1c1ccccc1F)N1CCCC(CN2CCOCC2)C1` (stereo not drawn), in that order: -16% and 2.3.
The matching figures for `O=C(NC1CCCCC1)c1ccc(-n2ccnc2-c2cccnc2)cc1`: -6% and 0.54.
For `Cc1ccc(C)c(C(=O)N2CCC3(CC2)N(C)C(=O)CS3(=O)=O)c1`, in that order: -13% and 1.91.
For the compound `Cc1ccsc1-c1noc([C@H]2CCC(=O)NC2)n1`, the “% Inhibition” value was -7% and the Z score was 1.33.
The matching figures for `Cn1nc(-c2cccc(Cl)c2)cc1C(=O)N1CCO[C@H](c2ccccc2)C1`: -9% and 1.18.
For `O=C(CS(=O)(=O)c1ccccc1)NCc1ccncc1`, in that order: -8% and 1.02.
As to `COc1ccnc(N2CCc3ccc(F)cc32)n1`, the “% Inhibition” value was 1% and the Z score is on record as -0.21.

As a reminder, the % Inhibition is the drop in the measured response relative to a control, in per cent.
